Assay: soluble fraction after stress (log2 fold change); higher = more stays soluble; pooled small domains, quantitative proteomics
Details: stress: 50 degC
Method in brief: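 The stress applied to every library was 50°C. These custom libraries of small protein domains were pooled and measured at high throughput with quantitative proteomics as the read-out. Aggregation propensity is expressed as the base-two logarithm of the fold change in how much of each protein remains soluble. The higher the value, the more of that protein stays in solution.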

“HMDSLPEPIKRLLNVLGDKKLSAAEIMEQLGLSHRATFRKNYLNPALELGLIEMTIPDKPNSRNQKYIKKQ” and “HMETLAWADTAQNGLDRLVAAQPILVRISAAKRLRDAAEQIARSAGVATVEIEHVQHASDSLQFGDA” are within 0.2 log units of each other in “soluble fraction (log2)” value: -0.308 for the first, -0.12 for the second.

Compared with “HMGPSEPVIVKWFNRLKGYGFVTRPDGEADIFVHMETVRRAGLAELMPGQTLHARITEGQKGPLVVALGE”, “HMKMVEGKVKWFNDSKGFGFIEQDGGKDVFVHHSAIQAEGFKSLAEGERVSFDVVAGPKGPAAANVRK” is higher in “soluble fraction (log2)” value: -1.05 for the first, -0.223 for the second.

First: HMLSQEALEFVRSLVDRPMVIFTTAYSEYAVEGFKLDAVDYLLKPFSFADFSRSAGKANSLYELRHN
Second: HMNNAVITINNLVKRFPVGGDFFTALKDIDLTLNKGEFTGLIGPSGSGKTTLLNIIGGLDSPTEGQVSV
The “soluble fraction (log2)” value of the first is lower: -0.596 for the first, 0.0153 for the second.

“HMQFGLDQVAHQRAHTLSGGMQRRLSIAMGLITNPKILFLDEPTVGLDVLARHELWHTLTALK” and “HMSDMGRDEAYEILGLARDSSEAEIREAHKKLMINNHPDHGGSAYLATKINRARDVLLDELNFF” are within 0.2 log units of each other in “soluble fraction (log2)” value: 0.0434 for the first, 9.92e-05 for the second.

“HMSDYYQDLGVERSATPEEIKRAYRRLARQLHPDVNPGAEAEEQFKTVSRAYEVLSDADKRRNYDLGVDP” and “HMVSSEQHYTVLGITKQATDTEVKKAYRKMAVKYHPDKLQGVSEDIKKLSEEKFLKVKEAYEQIMKGR” are within 0.2 log units of each other in “soluble fraction (log2)” value: 0.163 for the first, 0.136 for the second.
